According to the supplement of paper PMC4967469:
By IC50 is meant the dose at which the fit gives 50% viability; where the fit passes the top or lowest dose, that dose stands as a limit. For AUC the same curve is integrated over the 256-fold range of doses and scaled to a fraction: 1 means no effect, lower means more sensitive. For part of these data: A top dose marked as inferred was calculated from the reported fits. For part of these data: Where an entry number is given, a second screen of the drug exists; the two often differ.

How the values were obtained:
Test in all cases: Viability of human cancer cell lines after 72 h of drug (GDSC screen)
Afatinib = compound: CN(C)C/C=C/C(=O)Nc1cc2c(Nc3ccc(F)c(Cl)c3)ncnc2cc1O[C@H]1CCOC1 [Afatinib]
Method: (§1)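 Human cancer cell lines in 384-well plates, medium with 10% serum, drug for 72 h over a 256-fold dose range (nine 2-fold or five 4-fold steps up to the top dose). Adherent lines were fixed and stained with the nucleic acid dye Syto60, suspension lines read with resazurin; signal relative to control wells, capped at 0 and 100%. One two-parameter sigmoid per drug and line, fitted in a mixed model over all curves with the slope shared within a line.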

XMD13-2 = compound: O=C(NC1CC1)c1cccc(-c2ccc3c(NC(=O)C4CC4)n[nH]c3c2)c1 [XMD13-2]; conditions: top dose 10.24 µM; top dose inferred
Method: as §1

SNX-2112 = compound: CC1(C)CC(=O)c2c(C(F)(F)F)nn(-c3ccc(C(N)=O)c(N[C@H]4CC[C@H](O)CC4)c3)c2C1 [SNX-2112]; conditions: top dose 2.56 µM
Method: as §1

Vinblastine = compound: CC[C@]1(O)C[C@@H]2CN(CCc3c([nH]c4ccccc34)[C@@](C(=O)OC)(c3cc4c(cc3OC)N(C)[C@H]3[C@@](O)(C(=O)OC)[C@H](OC(C)=O)[C@]5(CC)C=CCN6CC[C@]43[C@@H]65)C2)C1 [Vinblastine]; conditions: top dose 0.1 µM; top dose inferred
Method: as §1

[1] = top dose 0.5 µM, screen: GDSC drug entry 1032
[2] = top dose 10 µM, screen: GDSC drug entry 1377, top dose inferred

| Cell Line | AUC (Afatinib; [1]) | IC50 (Afatinib; [1]) [nM] | AUC (Afatinib; [2]) | IC50 (Afatinib; [2]) [nM] | AUC (XMD13-2) | IC50 (XMD13-2) [nM] | AUC (SNX-2112) | IC50 (SNX-2112) [nM] | AUC (Vinblastine) | IC50 (Vinblastine) [nM] |
| --- | --- | --- | --- | --- | --- | --- | --- | --- | --- | --- |
| OV-7 (ovary, adherent) | 0.952 | > 500 | 0.898 | > 10000 | 0.954 | > 10200 | 0.573 | 280 | 0.717 | 35.9 |
| A704 (kidney, adherent) | 0.981 | > 500 | 0.974 | > 10000 | 0.989 | > 10200 | 0.813 | 1330 | 0.906 | > 100 |
| UWB1.289 (ovary, adherent) | 0.837 | > 500 | 0.777 | 6280 | 0.941 | > 10200 | 0.979 | > 2560 | 0.789 | 71 |
| QGP-1 (pancreas, adherent) | 0.977 | > 500 | 0.954 | > 10000 | 0.846 | > 10200 | 0.494 | 153 | 0.976 | > 100 |
| YH-13 (glioma, adherent) | 0.986 | > 500 | 0.904 | > 10000 | 0.941 | > 10200 | 0.561 | 238 | 0.438 | 4.19 |
| JHOS-3 (ovary, adherent) | 0.974 | > 500 | 0.902 | > 10000 | 0.973 | > 10200 | 0.894 | > 2560 | 0.958 | > 100 |
| KMS-11 (myeloma, suspension) | 0.991 | > 500 | 0.98 | > 10000 | 0.934 | > 10200 | 0.36 | 69.8 | 0.474 | 5.37 |
| SBC-5 (small cell lung carcinoma, adherent) | 0.993 | > 500 | 0.993 | > 10000 | 0.976 | > 10200 | 0.803 | 1000 | 0.535 | 7.66 |
| ABC-1 (lung adenocarcinoma, adherent) | 0.983 | > 500 | – | – | 0.913 | > 10200 | 0.718 | 763 | 0.588 | 11.5 |
| CHSA0108 (chondrosarcoma, adherent) | 0.981 | > 500 | 0.966 | > 10000 | 0.967 | > 10200 | 0.984 | > 2560 | 0.58 | 10.7 |
| TMK-1 (stomach, adherent) | 0.908 | > 500 | 0.935 | > 10000 | 0.974 | > 10200 | 0.893 | > 2560 | 0.438 | 4.18 |
| SK-MEL-5 (melanoma, adherent) | 0.977 | > 500 | 0.938 | > 10000 | 0.964 | > 10200 | 0.983 | > 2560 | 0.47 | 5.09 |
| COR-L321 (lung, suspension) | 0.987 | > 500 | 0.988 | > 10000 | 0.887 | > 10200 | 0.58 | 264 | 0.77 | 38 |
| NCI-H841 (small cell lung carcinoma, adherent) | 0.941 | > 500 | 0.94 | > 10000 | 0.867 | 9330 | 0.84 | 1770 | 0.456 | 4.73 |
| NCI-H1734 (lung adenocarcinoma, adherent) | 0.933 | > 500 | – | – | 0.951 | > 10200 | 0.819 | 1650 | 0.797 | 52.5 |
| RCC-JW (kidney, adherent) | 0.951 | > 500 | 0.903 | > 10000 | 0.898 | > 10200 | 0.888 | > 2560 | 0.531 | 7.62 |
| RCC-MF (kidney, adherent) | 0.879 | > 500 | 0.763 | 4640 | 0.825 | 8700 | 0.719 | 813 | 0.659 | 19.7 |
| MOLT-13 (T-cell lymphoblastic leukaemia, suspension) | – | – | 0.949 | > 10000 | 0.644 | 1520 | 0.461 | 127 | 0.534 | 7.64 |
| ESO26 (oesophagus, adherent) | 0.727 | 132 | 0.747 | 3040 | 0.917 | > 10200 | 0.204 | 22.9 | 0.643 | 15.2 |
| EFO-21 (ovary, adherent) | 0.949 | > 500 | 0.933 | > 10000 | 0.925 | > 10200 | 0.9 | > 2560 | 0.87 | > 100 |
| CADO-ES1 (Ewing sarcoma, suspension) | 0.977 | > 500 | 0.986 | > 10000 | 0.932 | > 10200 | 0.503 | 163 | 0.963 | > 100 |

| Cell Line | AUC (Afatinib; [1]) | IC50 (Afatinib; [1]) [nM] | AUC (Afatinib; [2]) | IC50 (Afatinib; [2]) [nM] | AUC (XMD13-2) | IC50 (XMD13-2) [nM] | AUC (SNX-2112) | IC50 (SNX-2112) [nM] | AUC (Vinblastine) | IC50 (Vinblastine) [nM] |
| --- | --- | --- | --- | --- | --- | --- | --- | --- | --- | --- |
| SNU-C5 (large intestine, adherent) | 0.951 | > 500 | 0.962 | > 10000 | 0.972 | > 10200 | 0.695 | 601 | 0.643 | 16.3 |
| OACp4C (oesophagus, adherent) | 0.883 | > 500 | 0.866 | > 10000 | 0.891 | > 10200 | 0.409 | 85.5 | 0.469 | 5.04 |
| RCC-AB (kidney, adherent) | 0.822 | 415 | 0.693 | 2580 | 0.795 | 6470 | 0.564 | 252 | 0.891 | > 100 |
| OACM5-1 (oesophagus, semi-adherent) | 0.986 | > 500 | 0.985 | > 10000 | 0.873 | > 10200 | 0.324 | 48.2 | 0.885 | > 100 |
| KYAE-1 (oesophagus, suspension) | 0.423 | 18.8 | 0.294 | 153 | 0.91 | > 10200 | 0.396 | 80.1 | 0.825 | 68.5 |
| OV-17R (ovary, adherent) | 0.948 | > 500 | 0.927 | > 10000 | 0.921 | > 10200 | 0.642 | 462 | 0.958 | > 100 |
| EMC-BAC-1 (lung adenocarcinoma, adherent) | 0.533 | 38.9 | 0.343 | 215 | 0.828 | 7580 | 0.685 | 571 | 0.439 | 4.16 |
| OVCA433 (ovary, adherent) | 0.931 | > 500 | 0.893 | > 10000 | 0.957 | > 10200 | 0.914 | > 2560 | 0.665 | 19.1 |
| RCC-JF (kidney, adherent) | 0.681 | 107 | 0.828 | 7240 | 0.955 | > 10200 | 0.345 | 55.9 | 0.548 | 8.59 |
| SK-MG-1 (glioma, adherent) | 0.979 | > 500 | 0.97 | > 10000 | 0.984 | > 10200 | 0.429 | 102 | 0.432 | 4.06 |
| SK-GT-4 (oesophagus, adherent) | 0.911 | > 500 | 0.884 | > 10000 | 0.917 | > 10200 | 0.635 | 415 | 0.511 | 6.73 |
| SNU-61 (large intestine, adherent) | 0.96 | > 500 | 0.951 | > 10000 | 0.899 | > 10200 | 0.503 | 163 | 0.889 | > 100 |
| D-423MG (glioma, adherent) | 0.952 | > 500 | 0.976 | > 10000 | 0.891 | > 10200 | 0.587 | 293 | 0.562 | 9.61 |
| RCC-FG2 (kidney, adherent) | 0.978 | > 500 | 0.874 | > 10000 | 0.954 | > 10200 | 0.696 | 668 | 0.807 | 69.1 |
| D-566MG (glioma, adherent) | 0.982 | > 500 | 0.92 | > 10000 | 0.921 | > 10200 | 0.467 | 130 | 0.318 | 1.96 |
| Hey (ovary, adherent) | 0.988 | > 500 | 0.918 | > 10000 | 0.882 | 9760 | 0.398 | 85.4 | 0.328 | 2.14 |
| NCC021 (kidney, adherent) | 0.984 | > 500 | 0.978 | > 10000 | 0.959 | > 10200 | 0.82 | 1800 | 0.883 | > 100 |
| DOV13 (ovary, adherent) | 0.836 | 406 | 0.799 | 5680 | 0.984 | > 10200 | 0.984 | > 2560 | 0.633 | 15.5 |
| ESO51 (oesophagus, semi-adherent) | 0.968 | > 500 | 0.965 | > 10000 | 0.925 | > 10200 | 0.37 | 60.4 | 0.705 | 30.4 |
| RCC-ER (kidney, adherent) | 0.986 | > 500 | 0.958 | > 10000 | 0.981 | > 10200 | 0.986 | > 2560 | 0.821 | 67.2 |
| huH-1 (liver, adherent) | 0.974 | > 500 | 0.982 | > 10000 | 0.984 | > 10200 | 0.973 | > 2560 | 0.752 | 40.4 |
